The full ranking holds about 33,000 sequences; the median of “E-score (-0.5 to 0.5)” is about -0.012, and the highest 2% start at about 0.29. The list shows a part of the results.
Target: T1, Ybr033w (UniProt P38073)
T1 sequence: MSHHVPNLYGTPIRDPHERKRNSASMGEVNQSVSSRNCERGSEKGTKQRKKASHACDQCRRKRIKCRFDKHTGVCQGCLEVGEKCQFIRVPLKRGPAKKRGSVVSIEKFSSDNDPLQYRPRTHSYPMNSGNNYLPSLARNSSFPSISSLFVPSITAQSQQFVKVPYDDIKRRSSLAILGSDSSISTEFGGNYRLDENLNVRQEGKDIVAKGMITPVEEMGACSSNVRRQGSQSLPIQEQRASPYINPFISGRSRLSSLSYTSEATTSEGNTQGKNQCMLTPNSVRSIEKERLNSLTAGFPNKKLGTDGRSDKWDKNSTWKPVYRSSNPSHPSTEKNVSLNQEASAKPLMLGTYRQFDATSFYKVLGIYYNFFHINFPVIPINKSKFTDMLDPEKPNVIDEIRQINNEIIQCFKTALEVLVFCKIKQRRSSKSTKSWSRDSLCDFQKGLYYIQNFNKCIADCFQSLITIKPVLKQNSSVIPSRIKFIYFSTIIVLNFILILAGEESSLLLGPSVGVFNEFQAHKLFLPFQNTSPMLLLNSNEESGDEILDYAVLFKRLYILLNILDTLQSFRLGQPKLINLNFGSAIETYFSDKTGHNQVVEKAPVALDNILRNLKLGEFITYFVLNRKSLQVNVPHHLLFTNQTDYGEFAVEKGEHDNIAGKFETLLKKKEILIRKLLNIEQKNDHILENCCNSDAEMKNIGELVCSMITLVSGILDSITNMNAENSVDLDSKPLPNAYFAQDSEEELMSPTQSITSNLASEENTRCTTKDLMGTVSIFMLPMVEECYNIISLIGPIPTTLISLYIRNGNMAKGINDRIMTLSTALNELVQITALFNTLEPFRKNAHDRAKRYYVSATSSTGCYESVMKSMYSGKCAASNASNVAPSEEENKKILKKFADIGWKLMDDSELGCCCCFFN
Assay: PBM E-score (8-mer binding enrichment) (E-score (-0.5 to 0.5)); higher = stronger / more preferred TF binding; most listed sequences are background and not binding sites
Settings: protein concentration: 200 nM; construct: GST-full length
Procedure, shortened: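 Detection of bound protein used fluorescent anti-GST, with scans normalised by masliner. The proteins were GST-tagged yeast transcription factors applied at about 100-200 nM to universal all-10-mer Agilent arrays made double-stranded by primer extension. Each ungapped eight-base word, pooled with its reverse complement, was scored with an E-score from the Universal PBM Analysis Suite.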

Sequence | PBM E-score
GAATTTCC | 0.343
GGATATGA | 0.0606
CGGAAGAG | -0.108
ACCTACGG | -0.134
ACAAACTC | 0.197
AAAAATAC | 0.304
CTCTCGAA | 0.0225
GTGAACTA | 0.163
GCCCGCCC | -0.263
CACAGTAA | 0.258
GTTAACCA | 0.0327
GAAAGTGC | -0.232
GCTGAGCA | 0.0674
GAGCGACA | -0.045
CTTTAAGA | 0.109
ATGGGTGG | -0.223
ACGCAGAC | -0.00797
ACCGTTCA | -0.0307
ATGTGACG | -0.00619
GTGCAAGA | 0.127
ACTCACAT | 0.00706
CTCGATAA | 0.178
AAAAGAAC | 0.146
AGACACAT | 0.0512
CCCCGTCG | -0.369

Sequence | PBM E-score
ACATTTGG | -0.039
GCACAGAC | -0.0221
CGAAGGTA | -0.00104
GTAGCTGA | -0.0101
ATAAAGGA | -0.0287
GACCTGTA | -0.0342
CCAATAAA | 0.153
AGTAGCGA | 0.121
AGTCCGGA | 0.165
GGAAGCTA | 0.0951
CTGGTTGA | -0.129
CAGTATGA | 0.133
ACGGCATG | -0.222
AGACACAG | -0.0703
CACCACGA | 0.101
CGGTATGC | -0.207
AAAATAAT | 0.319
GCTTTTAA | -0.105
CTAAAATC | 0.0682
TGAAATAA | 0.153
TACGAGAA | 0.0575
CCGCATCG | -0.252
TCGCGAAA | 0.078
GTGGTACA | -0.0296
CGCGTGAC | -0.0125

Sequence | PBM E-score
AACAGGAG | -0.109
ACGTTCTA | -0.0975
AAGGCAAA | 0.148
AGATTTCC | 0.135
CGACATCC | -0.269
CAACGGGA | 0.0409
ACCGCTTG | -0.0102
AGTAGAAT | 0.207
GCCGACTA | 0.00713
CTGGTCTA | -0.114
CTGCGCTA | -0.0654
GCCGGAGA | 0.0683
CCATGACG | 0.0307
GCCTCCAA | -0.0121
AGACGAGC | -0.172
CTTTATAC | 0.104
CAGACTCC | -0.158
ACAAGTAA | 0.0574
CGCCAGAC | -0.275
GAATACCC | -0.0827
GAGCTGCA | -0.284
AAGTTCGT | -0.0847
AGATTAGA | 0.0499
CCGTCATC | -0.199
ATGATTCA | 0.127

Sequence | PBM E-score
CGCGCCCC | -0.23
ATGACCTA | 0.07
ACTAATCT | 0.133
ACACGATC | 0.00815
AGGCTGGA | -0.212
CATCCGCC | -0.0479
GATGGACA | 0.0798
CACCCATA | -0.31
CAAAGACC | -0.117
GAATCGGC | 0.0099
GTTCAAAA | 0.0673
CCAGGTTA | -0.0583
ACCGGCTC | -0.122
ACACCTCA | -0.0311
CTATGATC | 0.06
GACGCACA | 0.00065
ATAACTAG | 0.166
ACCCTGAG | -0.0731
TCCGAAAA | 0.0884
ACTCTCGG | 0.133
ACGTGACC | -0.179
GTGAGAGA | -0.0478
AGGGGTGC | -0.285
CATCTGAG | 0.00472
ACGCAGCA | -0.19

Sequence | PBM E-score
GATAAGCA | -0.00799
AGGCACAC | -0.281
CACTGGCC | -0.208
CCATTAAA | 0.085
AGAAGATA | 0.286
CGTTTATA | 0.178
CTCCGCAA | -0.0427
CTTCCGGC | 0.0762
CCTCGAGG | -0.0862
CGATACTA | 0.0588
TGATGGCA | -0.24
CACTATCG | -0.0448
ATGATTGC | 0.175
AGCTTCGG | 0.0048
GCTGCTTA | -0.125
GACTAACC | -0.0392
ACATAGTG | 0.191
CCAATTGG | 0.103
CCGTTTTA | -0.0216
GACAAGTA | 0.0958
ACAAACCG | -0.0213
CGCTCGAA | 0.0449
AGGTCCTG | -0.167
AGAGCTTC | -0.0853
AAACCACA | 0.0692

Sequence | PBM E-score
ACGAAACG | 0.0443
TAGATAAA | 0.341
GGTGGATA | -0.00985
CACTCAAC | 0.0471
GATACTGC | 0.125
CACCGGGG | -0.306
ATCTGAAA | 0.196
AGACGTCC | -0.167
CCCTGTAG | -0.202
CCCACAAC | -0.108
CGGTGGGA | -0.152
AAAACTCT | 0.00352
CACTCGCA | -0.00609
ATAGGCCA | -0.0319
AGCGTGCA | 0.0865
ATTCACTG | 0.0466
CTAATGGC | -0.0296
ACCGGGCG | -0.29
ATGGTTTC | 0.11
CAATTGGA | 0.0629
AGTACTGA | 0.132
ATGCTAGC | 0.0574
ACTATCAG | 0.0153
CAGACCGC | -0.151
AATCAGTC | 0.0532

Sequence | PBM E-score
AGATCTCG | 0.00759
CCAAAAAC | 0.132
CACATTCA | 0.138
AAGCAAGA | 0.119
ACCATTGA | 0.103
CTTATAGA | 0.132
GACAATCC | 0.0412
TAAGTCAA | 0.0786
GTATCGTA | 0.164
TCGACCGA | -0.0438
ACCACGCC | -0.281
GCCTACGA | 0.0389
CAACCCCC | -0.338
CGGCCCGA | -0.245
CAAGTCCA | 0.0229
CAACACGA | 0.0587
CGAATAAG | -0.0119
AACGCAAG | -0.0608
AGTACGAC | -0.00212
AGCCATTC | -0.143
CTTGTCAA | 0.0361
AATAATAT | 0.388
AGGAGAAG | -0.0165
GACATCTA | 0.0843
CACGTGTA | -0.0937

Sequence | PBM E-score
CCACATGG | -0.15
CGAGGCCG | -0.301
AAGTCTGA | -0.179
CTAGGGAC | -0.151
GTGTCTCA | -0.0927
CACAGAAC | -0.115
CAGCCATA | -0.122
GAGGTCCA | -0.261
CAAACTGG | -0.114
GCAGTAGC | -0.176
AACGAATA | 0.00039
CACCCTCG | -0.134
ACGGGGAT | -0.105
CTTGGGTC | -0.271
AGGCAATA | -0.0405
TTGGAAAA | 0.298
TCGAGTAA | 0.165
AGCTGTTG | 0.0239
ATGAGAAG | -0.0312
AGGCGCCT | -0.244
ACGCGAGC | 0.0484
GCTGTGCA | -0.17
GGCAGGCC | -0.276
CCCCCCGC | -0.378
GGCCAGCA | -0.225

Sequence | PBM E-score
CAAAGGTG | -0.104
CCATCAGC | -0.0471
CCCAATCC | -0.135
GGAGACAA | -0.00399
CCAGGTTC | -0.269
AATCCTAT | 0.251
GCGACCCA | -0.277
CTTTCCTC | -0.0593
AGAGGATA | 0.0706
GTTCCGGA | 0.214
CCTGCCAG | -0.2
ACGTTCCG | -0.118
AGTGGTAC | -0.0555
ATGATCCG | 0.412
AAAACGAC | -0.059
ATGCAGCG | -0.107
AGAATAGG | 0.228
AGCTTCGC | -0.21
TATTGTGA | 0.105

Source: the supplement of paper PMC3334620
